Source: the supplement of paper PMC11417369
Some of the results follow.

Test system: PfSIP2 AP2 domain 1 (GST-tagged)
Assay: gcPBM binding intensity (ln(normalized median fluorescence intensity)); higher = stronger DNA binding
Outline: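 After 1 h on an Agilent 4 × 180k array of primer-extended double-stranded 36-bp intergenic genomic probes and negative controls, bound GST-tagged P. falciparum DNA-binding domains were detected with Alexa488 anti-GST antibody and scanned at 488 nm. The domains had been expressed in E. coli, and binding took place in 1× PBS with 1% milk, 0.2 mg/ml BSA, 0.5% salmon testes DNA and 0.03% Triton X-100. Binding intensity is the highest Masliner-normalised natural-log median intensity across replicate spots of either probe orientation.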

Row | Sequence | gcPBM binding intensity (ln)
1 | TATATACATATATATTGTACTTATTTTTATAATGTC [XGTACX_site3453] | 7.34
2 | TTAAGGCATCAACATAGTACAATTTTTCTATAATAA [XGTACX_site1114] | 6.94
3 | ATTTAATACAAATACACACACAAATAAATACAGATA [CACACA_site5956] | 7.05
4 | TTTATAATTCTTACAACACACAATGTACTTTTATAT [CACACA_site8340] | 7.12
5 | TTTATTTCCTTTTTGTGTACATATATATGTAATTCA [XGTACX_site1718] | 6.94
6 | ATAAAAGATATGTATATGTATATGTATATATATATA [TGCATGCA_negctrl_site214] | 9.08
7 | TATAAATAAATAGATACACACATATTTATAAATACA [CACACA_site6219] | 6.85
8 | TTACGCTGCTATATAGTGCACATAATATATGACCTG | 9.96
9 | GCTTAAGGTAAATATAAAATATAGTGTATACTTTAG [XGTACX_negctrl_site585] | 6.8
10 | ACTTAGGAAATAAAACGTACATTAAATATATACATA [XGTACX_site2990] | 7
11 | TGAATAATCAATAGTACACACATATAAATATAAATA [CACACA_site7345] | 6.98
12 | TTTTATTTATTATTATGTACACACTATATTAAAACA [XGTACX_site1265] | 7.13
13 | GTATGTATGTATGTATGTACTTATTAATCAGTAAAA [XGTACX_site3844] | 8.21
14 | TTTTTGTTAACAATGGGTACAAAAAAAAGGAAAATA [XGTACX_site7466] | 7.13
15 | CCCAAAAAATATCATAGTACTCAACATGACTACTAT [XGTACX_site7838] | 6.91
16 | AATTTTGTATAGGTATCACACATGAAATATATTATT [CACACA_site5526] | 6.98
17 | AAATAAAATAATAAAACATGCAAAAATAATGATTTA [TGCATGCA_site415] | 6.81
18 | ATAAAGATTAACAAAGTGCATTTATATATATAATCT [GTGCAC_site9407] | 7.87
19 | TATAATTATATAAATTGTACATAAAAAGTTTTTACT [XGTACX_site3621] | 6.99
20 | TATTATATCTTTTCAAGTACACATAACATACTTATT [XGTACX_site1081] | 7.37
21 | CAATATATTATATGGGTGCAAACCACATATAAATAA | 10.9
22 | TTAGGTATATATAAACGTACTCACAATATCATATAA [XGTACX_site8743] | 6.98
23 | TATATATACTTTTATGTACACACCTATAATATGGGT [CACACA_site1759] | 7.2

Row | Sequence | gcPBM binding intensity (ln)
24 | AAATGTAATAATAAATGTACAAACATATATATGTAT [XGTACX_site8718] | 6.94
25 | ATAAATAAATAAAAAAGTACATTTCCACTTTTAACA [XGTACX_site81] | 6.82
26 | TGCACCCACCAACACACACACAACTAAAAAATAATG [CACACA_site2566] | 8.09
27 | AAGTTTAAAATCTTTGCACACATATAAATAAATATA [CACACA_site2554] | 7.27
28 | TTAAATGTAATATAATGTACGGATATTTACCATAAA [XGTACX_site1472] | 6.85
29 | AAGTATGTATCACAAAGTACTTAAGCATATATTTAA [XGTACX_site4121] | 6.72
30 | TTGTAATAAATAAAAGTGCATATATGGTTCCACTAT [GTGCAC_site9944] | 8.18
31 | TACAAATATGGACACACACACATATATATATATATA [CACACA_site4488] | 9.51
32 | TTATTTTTTTATTCATGTACACAAGAACATTTCATT [XGTACX_site5744] | 7.22
33 | TAAATATATTGGAGAGGTACACTTTTGGCATTGAAA [XGTACX_site8447] | 6.93
34 | GTATATATAATGTGCCGTACATTTATATATTCAATA [XGTACX_site1051] | 7
35 | GTATAATAGAAACACACACACACACCCAAAAAAAAA [CACACA_site2010] | 7.25
36 | AATAAAATGCAATACATTTTGTTATATAATGTTGTT [CACACA_negctrl_site1525] | 6.92
37 | CACAATGTAGTGTATAAATACAATAAAAGGTTGTAT [CACACA_negctrl_site700] | 6.92
38 | TAAAGTGTAAAATTCACACACATATATATATATATA [CACACA_site4883] | 9.57
39 | ATATTGTAAGTAAACACACACACATATATCTGTATA [CACACA_site4541] | 7.2
40 | ATTTTTTTTTTCTTTTTTTTTTGTTTTTCTCCTTTT [CACACA_negctrl_site1182] | 6.56
41 | ATTTTTTTTATTATTACACACATATAATAAAAAAAT [CACACA_site1802] | 7.25
42 | GTATAATTTATTGAACGTACACATATATATATGTAT [XGTACX_site1395] | 7.24
43 | TATTTCTTATTACATACACACATATACATAGATGAC [CACACA_site5729] | 7.15
44 | TCTTGTCTACCTTGTATTTAATATTTACATATATAA [TGCATGCA_negctrl_site320] | 7.45
45 | TATTTGTAAAAATTGTGTACTTAGAAAATTCCAAAA [XGTACX_site6007] | 7.26
46 | TATATGTTTTTATGTACACACTTTTAACCTAAGAAA [CACACA_site4769] | 7.3

Row | Sequence | gcPBM binding intensity (ln)
47 | TTCTTGTATATATTTTGTACATATATACCATTTTAG [XGTACX_site2409] | 7.15
48 | AAATGTATAGGAATAATAATAAAAAAAAAAAAAAAT [CACACA_negctrl_site1793] | 6.83
49 | TGGAGGTCAGTTCACAGTACCCAGTAACTCTACGGA [XGTACX_site2549] | 6.5
50 | AAAAAAAATAAAATAATAAAAATTATGAATATATAT [CACACA_negctrl_site280] | 7.03
51 | ATCATTCCACTTTTCACACATATCTCTATTTCTATC [CACACA_site4723] | 7.37
52 | ATAGGTAATAATAATACACACGGTGAAATATAGATG [CACACA_site9336] | 6.93
53 | CAGTTTACTAATATTGCACACGAATATGAAAAAGAG [CACACA_site8941] | 8.13
54 | AAAAAAAATTATGAAGTGCATTAGTGAATTTGATTG | 9.16
55 | TTATCATTTGCCATTGTGCACTTATATGCTCACATT | 10.2
56 | TTTTTCACACTTCAAAAGTGTCAACCTTCTATTCTC [TGCATGCA_negctrl_site489] | 6.57
57 | TTGTCTACAAAAATGTGCTTCTAATCATACGACTTG [CACACA_negctrl_site46] | 6.71
58 | TACATATATTATTGCACACATATAAAATACCCCCAA [CACACA_site3895] | 8.23
59 | GTAAAATTTACATAGAGTACTTATATTTTTTTCTGC [XGTACX_site3414] | 6.84
60 | CACAAATATACAAATACACACAAATATACAAATACA [CACACA_site2385] | 7.04
61 | AAACTTTTTTTAAAAACACACATATAGATTTATATA [CACACA_site7842] | 7.01
62 | TTTTGTTATTTTTGTATGCACTACATATTATTATAT | 8.6
63 | TATTTTTAAACAAAACTGTATTTATTTTTTAAAATT [CACACA_negctrl_site1449] | 6.67
64 | TAGTTTTTTATATATTGTACAAATGATATATTATAT [XGTACX_site1002] | 7.1
65 | GAAATTAAAAAATTTATGCACACTTTAAAAAAAAAA [CACACA_site3769] | 7.81
66 | ATATATATATATAATTGTACATTTTTATGTTTTATA [XGTACX_site4560] | 9.09
67 | ATATGTAGTTTTTATTGTACGTGTAGAAGAAATAAT [XGTACX_site6608] | 7.35
68 | TTCATTAAAATTATTACACACAGTTCTTCAACCAAA [CACACA_site3504] | 6.84
69 | AATGATTTTCAATCGAAATGAAACTTAGAAGATATA [CACACA_negctrl_site1475] | 6.7

Row | Sequence | gcPBM binding intensity (ln)
70 | TTTTAAACAGGACACACACACATATAGATTTATATA [CACACA_site6560] | 7.04
71 | TATATTTTAATTTGAAGTACTAATATTTATTTATAT [XGTACX_site7458] | 6.99
72 | TATAACCATATATACACACACATATAAATATAAATA [CACACA_site7089] | 7.24
73 | AAGGTGGAAACAATTACACACACACTAAAAAAAAAA [CACACA_site7493] | 6.98
74 | ATATATATATATTTCGTGCACTGATAATATTATTTT | 10.2
75 | ATGAAAAAAAATAAAAAATATATATATATATATATA [CACACA_negctrl_site236] | 9.65
76 | AATTAATATATAAATAATAAAAAAAAATATATAAAC [XGTACX_negctrl_site280] | 6.88
77 | GAACGAAATAAGTGTGTGCACATGTAACCACAAATC [GTGCAC_site9829] | 8.48
78 | CAATATTTTCATAGATGTACTTTGGACTTATTATAT [XGTACX_site4849] | 6.75
79 | TAAATAAAAGATACGAGTACGTATGATGTTAACCTC [XGTACX_site8840] | 6.76
80 | ATTTATATATAGGTGTGTCCACAAATAGTATGTAAA [XGTACX_site2916] | 7.2
81 | GTATATAGTATGTAGAGTACTAATTTCCATATGTTC [XGTACX_site7816] | 7.05
82 | TTTAAAATAACCAAAAACAAAAAGAAACACAAATGT [GTGCAC_negctrl_site705] | 7.11
83 | GATCAAATAGAAAATACATGCAATGTGTGAAATAAC [TGCATGCA_site835] | 7.49
84 | TTTCAAATGGAATGTGTGCACATAAATGTAAATAAA | 9.06
85 | AAAAAAAAAATTTACTGTACACATTTGGGATACTCA [XGTACX_site5191] | 6.79
86 | CTTATTTAATGTATCACACACGAGAATAAAAAATAA [CACACA_site3020] | 7.07
87 | TATAAGTTGATATATACACACATATATAAATATGTA [CACACA_site7526] | 6.96
88 | TATTTATAAAAATATACACACATACAAATATGCATA [CACACA_site4555] | 6.94
89 | ATGGTTTTCAGAAAAACATGCATACAATAATAAAAA [TGCATGCA_site815] | 7.06
